According to PubChem BioAssay (NCI):
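In this assay, cells in 96-well plates receive the compound at five concentrations for 48 hours. Endpoints are linearly interpolated between the surrounding concentrations. The concentration for 50% growth inhibition is given as GI50. TGI is the concentration that stops growth completely.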

Test system: NCI-H322M lung
Assay: inhibition of tumour cell growth, NCI panel, 48 h

Row | Compound | GI50 | TGI
1 | O=C(CCCCCCNC(=O)C(O)(O)C(F)(F)F)Nc1ccc(-c2ccccc2)cc1 | 5.31 µM | 32.7 µM
2 | O=S(=O)(NC1CC2CCC1C2)c1ccc2c(c1)C(=NO)c1cc(S(=O)(=O)NC3CC4CCC3C4)ccc1-2 (centres undefined) | > 100 µM | > 100 µM
